Test results: the RNAGym collection of RNA variant scans (doi:10.1101/gad.245936.114)
Variants at the background level are over-represented here.

B1: tRNA (parent)
chain: CUCUCGGUAGCCAAGUUGGUUUAAGGCGCAAGACUUUAAUUUAUCACUACGAAAUCUUGAGAUCGGGCGUUCGACUCGCCCCCGGGAGAUUUUUUCCUCGAGCAA

Variants of: B1
Test: nonsense suppression (GFP-seq) (ratio to wild type); higher = more function; SUP4oc tRNA, yeast GFP reporter sort-seq
In short: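 Nonsense suppression (GFPSEQ) is the median GFP/RFP ratio of each sorting bin, weighted by the variant's estimated share of cells in that bin and expressed relative to the unmutated parent tRNA. Yeast strains carried genome-integrated variants of an ochre-suppressor tRNA from a library with ~3% random mutations, plus a galactose-driven GFP ochre reporter and RFP, and were grown in raffinose/galactose medium containing 80 mg/L adenine. Cells were sorted into GFP/RFP bins, each bin was Illumina-sequenced (phred ≥30), and variants were kept only with ≥100 reads and ≥30 cells.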

Variant | nonsense suppression
CUCUCGGUAGCCAAGUUGGUUUAAGGCGCAAGACUUUAAUUUAUCACUACGAAAUCUUGAAAUCGGGCUUUCGACGCGCCCCCGAGAGAUUUUUUCCUCGAGCAA | ≤ 0.026
CUCUCGGUAGCCAAGUUGGUUUAAGGCGCAAGACUUUAAUUUAUCACUACGAAAUCUUGUGAGCGGGCGUUCGUCUCGCCCCUGGGAGAUUUUUUCCUCGAGCAA | ≤ 0.026
CUCUCGGUAGCCAAGUUGGUUUAAGGCGCAAGACUUUAAUUUAUCACUACGAAAUCUUGAAAUCCGGCGUACGACUCGCUCCCGGGAGAUUUUUUCCUCGAGCAA | ≤ 0.026
CUCUCGGUAGCCAAGUUGGUUUAAGGCGCAAGACUUUAAUUUAUCACUACGAAAUCUUGACAUCGGACGUUCGACUCGCCCCCGGGAGAUUUUUUCCUCGAGCAA | 0.0647
CUCUCGGUAGCCAAGUUGGUUUAAGGCGCAAGACUUUAAUUUAUCACUACGAAAUCUUGUGAUCCGGCGUCCGACUCGCCCCCGGGAGAUUUUUUCCUCGAGCAA | ≤ 0.026
CUCUCGGUAGCCAAGUUGGUUUAAGGCGCAAGACUUUAAUUUAUCACUACGAAAUCUUGAAAUCGGCCGUUCGACUCGCCCCCGGGAGAUUUUUUCCUCGAGCAA | ≤ 0.026
CUCUCGGUAGCCAAGUUGGUUUAAGGCGCAAGACUUUAAUUUAUCACUACGAAAUCUUGAAAUCGGGCGUUCGACUGGCCCCCGGGAGAUUUUUUCCUCGAGCAA | ≤ 0.026
CUCUCGGUAGCCAAGUUGGUUUAAGGCGCAAGACUUUAAUUUAUCACUACGAAAUCUUGACAUCGGUCGUUCGACUCGCCCCCGGGAGUUUUUUUCCUCGAGCAA | ≤ 0.026
CUCUCGGUAGCCAAGUUGGUUUAAGGCGCAAGACUUUAAUUUAUCACUACGAAAUCUUGAAAUCGGGCGUUCGACUCUCCCCCGGGAGAUUUUUUCCUCGAGCAA | 0.0402
CUCUCGGUAGCCAAGUUGGUUUAAGGCGCAAGACUUUAAUUUAUCACUACGAAAUCUUGUGAUCGGGCGUUCGACUCGCCCCCGGAAGAUUUUUUCCUCGAGCAA | ≤ 0.026
CUCUCGGUAGCCAAGUUGGUUUAAGGCGCAAGACUUUAAUUUAUCACUACGAAAUCUUGACAUCGGGCGUUCGUCUCGCCUCCGGUAGAUUUUUUCCUCGAGCAA | ≤ 0.026
CUCUCGGUAGCCAAGUUGGUUUAAGGCGCAAGACUUUAAUUUAUCACUACGAAAUCUUGAAAUGGGGCGUUCGACUCGCCCCCGGGAGAUUUUUUCCUCGAGCAA | 0.0404
CUCUCGGUAGCCAAGUUGGUUUAAGGCGCAAGACUUUAAUUUAUCACUACGAAAUCUUGUGAUCGGGCGUGCGACUCGCCCCCGGGAGAUUUUUUCCUCGAGCAA | ≤ 0.026
CUCUCGGUAGCCAAGUUGGUUUAAGGCGCAAGACUUUAAUUUAUCACUACGAAAUCUUGUGAUCGGGCGUACGACUCGCCCCCGGGAGAUUUUUUCCUCGAGCAA | ≤ 0.026
CUCUCGGUAGCCAAGUUGGUUUAAGGCGCAAGACUUUAAUUUAUCACUACGAAAUCUUGAAAUCGGGCGUUUGACUCGCCCCCGGGAGAUUUUUUCCUCGAGCAA | 0.0666
CUCUCGGUAGCCAAGUUGGUUUAAGGCGCAAGACUUUAAUUUAUCACUACGAAAUCUUGUGAUCGGGCGUUCGACCCGCCCCCGGGAGAUUUUUUCCUCGAGCAA | 1.05
CUCUCGGUAGCCAAGUUGGUUUAAGGCGCAAGACUUUAAUUUAUCACUACGAAAUCUUGUGAUUGGGCGUUCGACUCGCCCCCGGGAGAUUUUUUCCUCGAGCAA | ≤ 0.026
CUCUCGGUAGCCAAGUUGGUUUAAGGCGCAAGACUUUAAUUUAUCACUACGAAAUCUUGAAAUCGGGCGUUCGACUCGCCCCCGGGAGAUUUUUUCCUCGAGCAA | 0.853
CUCUCGGUAGCCAAGUUGGUUUAAGGCGCAAGACUUUAAUUUAUCACUACGAAAUCUUGACAUCGGGCGUUCGACUCGCCCCCGGGAGAUUUUUUCCUCGAGCAA | 1.14
CUCUCGGUAGCCAAGUUGGUUUAAGGCGCAAGACUUUAAUUUAUCACUACGAAAUCUUGAAAUCGGGCGUGCGACACGCCCCCGGGAGAUUUUUUCCUCGAGCAA | ≤ 0.026
CUCUCGGUAGCCAAGUUGGUUUAAGGCGCAAGACUUUAAUUUAUCACUACGAAAUCUUGACAUCAGGCGUGCGACUCGCCCCCGGGAGAUUUUUUCCUCGAGCAA | ≤ 0.026
CUCUCGGUAGCCAAGUUGGUUUAAGGCGCAAGACUUUAAUUUAUCACUACGAAAUCUUGACAUCGGGCUUUCGCCUCGCCCCCGGGAGAUUUUUUCCUCGAGCAA | ≤ 0.026
CUCUCGGUAGCCAAGUUGGUUUAAGGCGCAAGACUUUAAUUUAUCACUACGAAAUCUUGAAAUCGGGCGUUCAACUCGCCCCCGGGAGAUUUUUUCCUCGAGCAA | 0.202
CUCUCGGUAGCCAAGUUGGUUUAAGGCGCAAGACUUUAAUUUAUCACUACGAAAUCUUGUGAUCGGGCGUUCGACUCGCCUCCGGGAGAUUUUUUCCUCGAGCAA | 0.818
CUCUCGGUAGCCAAGUUGGUUUAAGGCGCAAGACUUUAAUUUAUCACUACGAAAUCUUGAAAUCGGGCGUUCGAAUCGCACCCGGGAGAUUUUUUCCUCGAGCAA | ≤ 0.026
CUCUCGGUAGCCAAGUUGGUUUAAGGCGCAAGACUUUAAUUUAUCACUACGAAAUCUUGAAAUCGGGCGCUCGACUGGCCCCCGGGAGAUUUUUUCCUCGAGCAA | ≤ 0.026
CUCUCGGUAGCCAAGUUGGUUUAAGGCGCAAGACUUUAAUUUAUCACUACGAAAUCUUGAAAUCGGGCGUUCGACUCGCCCCGGGGAGAUUUUUUCCUCGAGCAA | ≤ 0.026

Variant | nonsense suppression
CUCUCGGUAGCCAAGUUGGUUUAAGGCGCAAGACUUUAAUUUAUCACUACGAAAUCUUGAAAUCGGGCGUUCGACUCGCCCCAGGGAGAUUUUUUCCUCGAGCAA | 0.0363
CUCUCGGUAGCCAAGUUGGUUUAAGGCGCAAGACUUUAAUUUAUCACUACGAAAUCUUGAAAUCGGGCGUUCGACUCGCCCCCCGGAGAUUUUUUCCUCGAGCAA | 0.0752
CUCUCGGUAGCCAAGUUGGUUUAAGGCGCAAGACUUUAAUUUAUCACUACGAAAUCUUGUGAUCGGGCGUUCGACUCGCCCACGGGAGAUUUUUUCCUCGAGCAA | ≤ 0.026
CUCUCGGUAGCCAAGUUGGUUUAAGGCGCAAGACUUUAAUUUAUCACUACGAAAUCUUGAAAUCAGGCGUUCGACUCGCCCCCGGGAGAUUUUUUCCUCGAGCAA | 0.127
CUCUCGGUAGCCAAGUUGGUUUAAGGCGCAAGACUUUAAUUUAUCACUACGAAAUCUUGAAAUCCGGCGUUCGACUCGCCCCCGGGAGAUUUUUUCCUCGAGCAA | ≤ 0.026
CUCUCGGUAGCCAAGUUGGUUUAAGGCGCAAGACUUUAAUUUAUCACUACGAAAUCUUGAAAUCGGGCGUUCGACCCGCCCCCGGGAGAUUUUUUCCUCGAGCAA | 0.775
CUCUCGGUAGCCAAGUUGGUUUAAGGCGCAAGACUUUAAUUUAUCACUACGAAAUCUUGAAAUCGGGUGUUCGACUCGCCCCCGGGAGAUUUUUUCCUCGAGCAA | 0.609
CUCUCGGUAGCCAAGUUGGUUUAAGGCGCAAGACUUUAAUUUAUCACUACGAAAUCUUGUGAUCGGGCGUUCGACUCGCCCCCGCGAGAUUUUUUCCUCGAGCAA | ≤ 0.026
CUCUCGGUAGCCAAGUUGGUUUAAGGCGCAAGACUUUAAUUUAUCACUACGAAAUCUUGUGAGCGGGCGUUCGACUCGCCCCCGGGAGAUUUUUUCCUCGAGCAA | 0.789
CUCUCGGUAGCCAAGUUGGUUUAAGGCGCAAGACUUUAAUUUAUCACUACGAAAUCUUGAAAUCGGGCGUUCGAAUCGCCCCCGGGAGAUUUUUUCCUCGAGCAA | 0.842
CUCUCGGUAGCCAAGUUGGUUUAAGGCGCAAGACUUUAAUUUAUCACUACGAAAUCUUGAAAUCGGGCGUUCGAUUCGCCCCCGGGAGAUUUUUUCCUCGAGCAA | 0.923
CUCUCGGUAGCCAAGUUGGUUUAAGGCGCAAGACUUUAAUUUAUCACUACGAAAUCUUGUGAUCGGGCGUUGGACUGGCCCCCGGGAGAUUUUUUCCUCGAGCAA | ≤ 0.026
CUCUCGGUAGCCAAGUUGGUUUAAGGCGCAAGACUUUAAUUUAUCACUACGAAAUCUUGUGGUCGGGCGUUCGACUCGCCCCCGGGAGAUUUUUUCCUCGAGCAA | 0.112
CUCUCGGUAGCCAAGUUGGUUUAAGGCGCAAGACUUUAAUUUAUCACUACGAAAUCUUGAAAUCGGGCGUUCGACUCGCCCCCGGGUGAUUUUUUCCUCGAGCAA | 0.181
CUCUCGGUAGCCAAGUUGGUUUAAGGCGCAAGACUUUAAUUUAUCACUACGAAAUCUUGAAAUCGGGCGUUCGACUCGCCCCCGGGCGAUUUUUUCCUCGAGCAA | ≤ 0.026
CUCUCGGUAGCCAAGUUGGUUUAAGGCGCAAGACUUUAAUUUAUCACUACGAAAUCUUGUGAUCGGCCGUUCGACUCGCCCCCGGGAGAUUUUUUCCUCGAGCAA | ≤ 0.026
CUCUCGGUAGCCAAGUUGGUUUAAGGCGCAAGACUUUAAUUUAUCACUACGAAAUCUUGACAUAGGGCGUUCGACUCGCCCCCGGGAGAUUUUUUCCUCGAGCAA | ≤ 0.026
CUCUCGGUAGCCAAGUUGGUUUAAGGCGCAAGACUUUAAUUUAUCACUACGAAAUCUUGUGAUCGGGCGUUCGACUCGCCCCUGCGAGAUUUUUUCCUCGAGCAA | ≤ 0.026
CUCUCGGUAGCCAAGUUGGUUUAAGGCGCAAGACUUUAAUUUAUCACUACGAAAUCUUGACCUCGGGCGUUCGACUCGCCCCCGGGAGAUUUUUUCCUCGAGCAA | ≤ 0.026
CUCUCGGUAGCCAAGUUGGUUUAAGGCGCAAGACUUUAAUUUAUCACUACGAAAUCUUGAAAUCGCGCGUUCGACUCGCCCCCGGGAGAUUUUUUCCUCGAGCAA | ≤ 0.026
CUCUCGGUAGCCAAGUUGGUUUAAGGCGCAAGACUUUAAUUUAUCACUACGAAAUCUUGAAUUCGGGCGUUCGACUCGCCCCCGGGGGAUUUUUUCCUCGAGCAA | ≤ 0.026
CUCUCGGUAGCCAAGUUGGUUUAAGGCGCAAGACUUUAAUUUAUCACUACGAAAUCUUGAAAUCGGGCGUUCGACUCGUCCCCGGGAGAUUUUUUCCUCGAGCAA | 0.209
CUCUCGGUAGCCAAGUUGGUUUAAGGCGCAAGACUUUAAUUUAUCACUACGAAAUCUUGAAAUCGGGCGUUCGACUCGGCCCCGGGAGAUUUUUUCCUCGAGCAA | ≤ 0.026
CUCUCGGUAGCCAAGUUGGUUUAAGGCGCAAGACUUUAAUUUAUCACUACGAAAUCUUGACAUCGGGUGUUCGCCUCGCCCCCGGGAGAUUUUUUCCUCGAGCAA | ≤ 0.026
CUCUCGGUAGCCAAGUUGGUUUAAGGCGCAAGACUUUAAUUUAUCACUACGAAAUCUUGAAAUCGGGCGUUCGACUCGCCCCCGGGAGCUUUUUUCCUCGAGCAA | 0.0288
CUCUCGGUAGCCAAGUUGGUUUAAGGCGCAAGACUUUAAUUUAUCACUACGAAAUCUUGAAAUCGGACGUUCCACUCGCCCCCGGGAGAUUUUUUCCUCGAGCAA | ≤ 0.026
CUCUCGGUAGCCAAGUUGGUUUAAGGCGCAAGACUUUAAUUUAUCACUACGAAAUCUUGACAUGGGGCGUUCGAGUCGCCCCCGGGAGAUUUUUUCCUCGAGCAA | ≤ 0.026
